Hit rate of the full screen: of about 310,000 compounds, about 2,200 (0.71%) showed an effect of 50% or more. Effects have a minus sign here. Some of the results follow.

Chain of human ether-à-go-go-related gene (hERG) potassium channel (Q12809 whole entry, looked up): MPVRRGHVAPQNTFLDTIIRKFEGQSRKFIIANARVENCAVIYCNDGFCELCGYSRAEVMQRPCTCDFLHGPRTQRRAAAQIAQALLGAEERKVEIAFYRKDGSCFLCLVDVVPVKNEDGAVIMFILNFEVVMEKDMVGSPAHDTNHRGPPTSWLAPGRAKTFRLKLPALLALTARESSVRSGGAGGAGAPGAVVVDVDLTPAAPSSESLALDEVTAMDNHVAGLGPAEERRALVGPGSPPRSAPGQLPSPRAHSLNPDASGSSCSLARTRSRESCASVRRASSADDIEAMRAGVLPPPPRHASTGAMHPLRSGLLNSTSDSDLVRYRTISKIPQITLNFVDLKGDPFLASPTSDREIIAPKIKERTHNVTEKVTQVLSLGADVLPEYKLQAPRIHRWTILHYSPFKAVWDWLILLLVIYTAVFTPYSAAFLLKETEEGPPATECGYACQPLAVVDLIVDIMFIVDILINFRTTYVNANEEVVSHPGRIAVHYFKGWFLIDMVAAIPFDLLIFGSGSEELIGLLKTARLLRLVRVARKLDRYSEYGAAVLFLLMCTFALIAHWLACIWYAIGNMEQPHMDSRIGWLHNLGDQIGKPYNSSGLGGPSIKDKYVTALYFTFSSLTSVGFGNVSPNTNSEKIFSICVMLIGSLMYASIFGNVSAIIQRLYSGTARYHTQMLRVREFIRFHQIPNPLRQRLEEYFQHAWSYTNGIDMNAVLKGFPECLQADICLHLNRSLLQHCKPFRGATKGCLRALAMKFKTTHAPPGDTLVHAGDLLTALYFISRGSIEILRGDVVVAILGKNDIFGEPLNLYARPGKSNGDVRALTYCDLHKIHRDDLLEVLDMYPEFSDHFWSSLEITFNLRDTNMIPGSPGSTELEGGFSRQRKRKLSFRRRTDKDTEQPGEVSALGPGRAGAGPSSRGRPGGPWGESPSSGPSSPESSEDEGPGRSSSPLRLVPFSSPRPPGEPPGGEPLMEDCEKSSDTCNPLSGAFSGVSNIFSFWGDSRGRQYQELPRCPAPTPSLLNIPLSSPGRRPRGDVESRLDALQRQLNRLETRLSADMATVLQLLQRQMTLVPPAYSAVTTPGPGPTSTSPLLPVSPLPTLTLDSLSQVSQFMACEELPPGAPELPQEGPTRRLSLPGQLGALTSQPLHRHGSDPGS

This assay concerns the target human ether-à-go-go-related gene (hERG) potassium channel (human, UniProt Q12809). The assay can be described thus: primary screen, population patch clamp on CHO cells stably expressing hERG.
`Cc1ccc(C(c2sc3nc(C)nn3c2O)N2CCN(c3ccccc3)CC2)cc1` (stereo not shown): the “hERG current change (%, negative = inhibition) at 1uM” value amounted to 10.8%.
Then `COc1ccc(C(O)c2nccc3cc(OC)c(OC)cc23)cc1OC` (stereo not shown), with 6.46%; and `Cc1ccc(C)c(N2CCN(C(=O)C3CCN(S(=O)(=O)c4c(C)noc4C)CC3)CC2)c1`, with 7.93%.
Turning to `O=S1(=O)C[C@@H](O)[C@@H](Nc2ccccc2)C1`, the “hERG current change (%, negative = inhibition) at 1uM” value worked out at 16.7%.
Then `CCOc1ncccc1C(=O)Nc1ccc(S(=O)(=O)N2CCCC2)cc1`, with 10.2%.
Then `O=C(c1cc2cc(Cl)ccc2[nH]1)N1CCN(c2ccccn2)CC1`, with 1.42%; and `Cc1cc(Cl)ccc1OCc1nc(-c2ccc(O)cc2)n[nH]1`, with 8.42%; and `O=C(CSc1nnc2scc(-c3ccc(Cl)cc3)n12)NCc1ccco1`, with 1.75%.
Then `Cc1cc(C)cc(OCC(=O)Nc2nc(-c3cccnc3)cs2)c1`, with 4.54%.
In the case of `O=C(CSCC(=O)Nc1nccs1)Nc1ccccc1`, the “hERG current change (%, negative = inhibition) at 1uM” value was 1.77%.
Then `CCN(CC(=O)Nc1ccc(OC)c(OC)c1)S(=O)(=O)c1ccc(C)cc1`, with 10.4%.
Then `CCC(C(=O)NC1CCCCC1)n1c(SCc2ccc(F)cc2)nc2ccncc21` (stereo not shown), with 0.236%; and `O=C(Cn1nnc2ccccc2c1=O)Nc1ccc2c(c1)CCC2`, with -7.26%; and `COc1ccc(N2C(=O)CC(c3ccccc3)C2=O)cc1` (stereo not shown), with 16%.
`COc1ccc(N2C(=O)C3C4c5ccccc5C(C=Nc5ccc(C)cc5C)(c5ccccc54)C3C2=O)cc1` (stereo not shown): the “hERG current change (%, negative = inhibition) at 1uM” value was 11.6%.
Turning to `COc1cccc(NC(=O)N2CCCC2C(=O)NC2CCCC2)c1` (stereo not shown), the “hERG current change (%, negative = inhibition) at 1uM” value came out at 5.96%.
As to `NS(=O)(=O)c1cccc(NC(=S)NC(=O)C23CC4CC(CC(C4)C2)C3)c1`, the “hERG current change (%, negative = inhibition) at 1uM” value worked out at 17.2%.
`CSc1ccc(S(=O)(=O)NCc2ccc(C)cc2)cc1`: the “hERG current change (%, negative = inhibition) at 1uM” value was determined as 5.73%.
As for `O=C(CCCOc1ccc(Cl)cc1)N1CCCCCC1`, the “hERG current change (%, negative = inhibition) at 1uM” value is given as -0.946%.
Then `COc1ccc(S(=O)(=O)N2CCOCC2)cc1NC(=O)CCCOc1ccc(Cl)cc1C`, with 13.1%; and `CCCCc1c(C)[nH]c2nc3ccccc3n2c1=O`, with 8.48%; and `CCNC(=O)NC(=O)C(C)Sc1nnc(COc2ccccc2Cl)o1` (stereo not shown), with 7.66%.
Then `CCCN(CCC)C(=O)COc1cc(=O)n(CC)c2ccccc12`, with 1.52%; and `Cc1ccc(C(C)C)c(OCCCN(C)Cc2ccccc2)c1.O=C(O)C(=O)O`, with 9.67%; and `O=C1CCc2cc(S(=O)(=O)Nc3ccccc3)cc3c2N1CCC3`, with 10.9%.
Then `Cc1cccc(-c2noc(CN(C)C(=O)COc3ccccc3)n2)c1`, with 5.61%.
As for `Clc1ccc(OCCCn2cncn2)cc1Cl`, the “hERG current change (%, negative = inhibition) at 1uM” value stood at 2.79%.
Then `CCOC(=O)C1CN(S(=O)(=O)c2ccc(OC)cc2)c2ccccc2O1` (stereo not shown), with 20.2%; and `Cc1nnc(SCc2nc3ccccc3s2)n1-c1ccccc1`, with 6.72%; and `CC(C)C(NC(=O)C12CC3CC(CC(C3)C1)C2)C(=O)N/N=C/C1=C(N2CCOCC2)C(=C\c2ccc([N+](=O)[O-])cc2)/CC1` (stereo not shown), with 12.9%.
Then `O=C(Cn1ccc2ccccc2c1=O)NCCC(=O)Nc1ccc(F)cc1F`, with 8.02%; and `CCOc1cc(CNC(C)C(O)c2ccccc2)cc(Cl)c1OCC.Cl` (stereo not shown), with 16%; and `Cn1nc(C(F)(F)F)c(C#N)c1N1CCN(c2ccc(F)cc2)CC1`, with -0.293%.
Then `Cc1ccc(C(=O)C[n+]2cc(-c3ccccc3)n3c2CCCCC3)cc1.[Br-]`, with 10.3%; and `CCn1c(=O)c2cc(C(=O)NCCN(C)C)sc2c2ccccc21`, with 13.4%.
Regarding `COc1ccc(S(=O)(=O)N2C(=O)/C(=C3\SC(N)=NC3=O)c3ccccc32)cc1`, the “hERG current change (%, negative = inhibition) at 1uM” value is recorded as 9.83%.
Then `Cc1sc2ncnc(SCC(=O)Nc3ccc(CN4CCCC4)cc3)c2c1C`, with -18.3%; and `CC1(C)CC(NC(=O)c2ccc(Cl)cc2)CC(C)(C)N1`, with 14.5%.
Then `COc1ccc(Nc2cc(C)nc3ncnn23)c(OC)c1`, with 12.6%; and `O=[N+]([O-])c1cccc(C2=NC(c3ccccc3)CO2)c1` (stereo not shown), with 5.27%; and `Cc1cc(C)c(C2=NOC(O)(C(F)(F)F)C2)c(=O)[nH]1` (stereo not shown), with 6.55%.
For `Cc1onc(-c2ccccc2Cl)c1C(=O)Nc1cccc(S(=O)(=O)NC2=NCCC2)c1`, the “hERG current change (%, negative = inhibition) at 1uM” value is listed as 0.0416%.
As to `Cc1sc2nc(CSc3nc4ccccc4s3)[nH]c(=O)c2c1C`, the “hERG current change (%, negative = inhibition) at 1uM” value was found to be 5.76%.
Then `Cc1ccc2c(c1)=NC(=O)/C(=C/c1c(O)[nH]c(=O)[nH]c1=O)C=2`, with 7.29%.
On to `CCOC(=O)c1c(C)oc2ccc(OCC(=O)N(CC)CC)cc12`, for which the “hERG current change (%, negative = inhibition) at 1uM” value is 0.753%.
Then `COc1cc(NC(=O)C2CC2C)c(C(=O)O)cc1OC` (stereo not shown), with 7.09%; and `COC(C/C=C\C(=O)COCc1ccccc1)OC`, with 12.8%.
On to `Cc1cc(C(F)F)n2ncc(C(=O)O)c2n1`, for which the “hERG current change (%, negative = inhibition) at 1uM” value is listed as 0.0824%.
Then `Cc1cc(=S)c2ccccc2[nH]1`, with 20.8%; and `Cc1ccccc1NC(=O)CN1C(=O)N/C(=C\c2ccc(N3CCOCC3)c(F)c2)C1=O`, with 5.07%.
Then `CCOC(=O)N1CCN(C/C(C)=C/c2ccccc2)CC1`, with 1.78%.
Then `COc1ccc(N=C2SCCCN2C)cc1.I`, with 15.8%; and `CCN1CCN(CCOc2cccc(Cl)c2Cl)CC1.O=C(O)C(=O)O`, with 12.8%; and `COc1ccc2c(c1OC)C(=O)N(c1ccc(C)c(C)c1)C2=O`, with 9.78%.
Regarding `CC1CCC(C(=O)NC(C(=O)NCCc2ccc(S(N)(=O)=O)cc2)C(C)C)CC1` (stereo not shown), the “hERG current change (%, negative = inhibition) at 1uM” value is on record as 0.0462%.
On to `Cc1nc(C(=O)N2CCCC(C(=O)c3ccc(Cl)cc3)C2)cs1` (stereo not shown), for which the “hERG current change (%, negative = inhibition) at 1uM” value came to 10.3%.
Take `Cc1cccc(-n2c(C)cc(/C=N\NC(=O)c3cccs3)c2C)c1`: the “hERG current change (%, negative = inhibition) at 1uM” value was found to be 7.17%.
Then `COc1ccc(-c2nc(N)nc(C(F)(F)F)c2-c2ccccc2OC)c(O)c1`, with 0.588%.
For `CCN(CC)C(=O)CCCOc1ccc(Cl)cc1Cl`, the “hERG current change (%, negative = inhibition) at 1uM” value turned out to be 5.56%.
Then `O=C(CN1C(=O)NC2(CCOc3ccccc32)C1=O)Nc1ccc(Br)cc1F` (stereo not shown), with 7.3%; and `COc1ccccc1CNC(=O)C1CCN(S(=O)(=O)c2cccc([N+](=O)[O-])c2)CC1`, with -3.01%.
Then `Cc1[nH]n2cnnc2c(=O)c1Br.O=S(=O)(O)O`, with 6.34%.
With `CC(=O)c1cccc(NC(=O)c2cc(Cl)sc2Cl)c1`, the “hERG current change (%, negative = inhibition) at 1uM” value turned out to be 12.7%.
For `O=C(Nc1ccc(NC(=O)c2cccs2)cc1)c1ccco1`, the “hERG current change (%, negative = inhibition) at 1uM” value was 7.46%.
Consider `COc1ccc(CNC(=O)CN2CCN(S(=O)(=O)c3cccs3)CC2)cc1OC`, for which the “hERG current change (%, negative = inhibition) at 1uM” value stood at 7.36%.
Then `CN1CCCC(C(=O)C(C#N)c2ccccc2)C1` (stereo not shown), with 11.1%; and `COc1ccc(S(=O)(=O)N2CCN(C(=O)c3ccc(NC(C)=O)cc3)CC2)cc1`, with 11.2%; and `O=C(c1ccc2c(c1)OCO2)N(c1ccc(Br)cc1)C1C=CS(=O)(=O)C1` (stereo not shown), with 3.92%.
For `COCCN1CN(S(=O)(=O)c2cccc(Cl)c2)c2nc3ccccc3nc21`, the “hERG current change (%, negative = inhibition) at 1uM” value is recorded as 7.6%.
Then `Oc1cc(O)cc(/C=C/c2ccc(O)cc2O)c1`, with 7.9%; and `Cc1cccc(CC(=O)OCn2nnc3ccccc3c2=O)c1`, with -6.38%; and `CCN1CCCC1CNC(=O)CN1C(=O)COc2ccc(C)cc21` (stereo not shown), with -0.512%.
Then `COCC(=O)Nc1cc(Cl)c(OC)cc1OC`, with 6.45%; and `Cc1ccc(C(=O)C2CCOC(C)(C)C2)cc1` (stereo not shown), with 7.21%.
Regarding `CS(=O)(=O)N1N=C(c2ccc(Cl)cc2)CC1c1cccs1` (stereo not shown), the “hERG current change (%, negative = inhibition) at 1uM” value is recorded as -2.58%.
Then `Cc1nnc(N2C(=O)C(O)=C(C(=O)c3ccco3)C2c2ccc(F)cc2)s1` (stereo not shown), with 13.9%; and `CCCCSC1=C(C#N)C(c2ccccc2C)C(C(=O)OCC)C(=O)N1` (stereo not shown), with 19.4%.
Then `COc1ccc(NC(=O)CSCC(=O)N(C)Cc2cccc(OC)c2OC)cc1`, with 0.451%; and `COc1ccc(CCNC(=O)C2CC3Cn4c(nc5cc(C)c(C)cc54)C3N2C)cc1` (stereo not shown), with -4.22%.
`Cc1cc(C)cc(NC(=S)NCc2ccc3[nH]c4c(c3c2)CCCC4)c1`: the “hERG current change (%, negative = inhibition) at 1uM” value worked out at 19.2%.
Take `O=C(NCc1nnc2c(C(F)(F)F)cc(Cl)cn12)c1ccc(Br)o1`: the “hERG current change (%, negative = inhibition) at 1uM” value worked out at 13%.
Then `CCOc1cc(CNc2ccc3c(c2)OCCO3)cc(Br)c1OC`, with 8.44%.
Then `COc1ccc(OCCCC(=O)OCC(=O)c2ccc3c(c2)NC(=O)CO3)cc1`, with 11.9%; and `COc1ccccc1N1CCN(C(=O)C(C)N(c2ccc(C)cc2)S(C)(=O)=O)CC1` (stereo not shown), with 4.36%; and `CCC(C)c1ccccc1OCCCNC1CCCC1.O=C(O)C(=O)O` (stereo not shown), with 1.26%.
Consider `CCSc1oc(-c2ccco2)nc1S(=O)(=O)c1ccccc1`, for which the “hERG current change (%, negative = inhibition) at 1uM” value turned out to be 6.59%.
Consider `OC(CNC1CCCCC1)C(F)(F)F` (stereo not shown), for which the “hERG current change (%, negative = inhibition) at 1uM” value stood at 3.47%.
Then `O=C(NCC(=O)N1CCN(S(=O)(=O)/C=C/c2ccccc2)CC1)c1ccccc1F`, with 17.7%; and `CN1CCc2nc(SCC(=O)Nc3ccc(Cl)cc3)c(C#N)cc2C1`, with -5.05%.
Then `CC(C)=CCN1CCN(Cc2cccnc2)CC1CCO` (stereo not shown), with 10.2%; and `CCOC(=O)C1=C(C)OC(N)=C(C#N)C1c1cncc(-c2ccc(F)cc2)c1` (stereo not shown), with -1.64%.

The record behind these values is paper PMC4336329 (PLoS ONE, 2015).
